According to the supplement of paper PMC3334620:
Whole data set: some 33,000 sequences, median “E-score (-0.5 to 0.5)” near -0.016, cut for the highest 2% near 0.31. The list shows a part of the results.

biological target: Cst6 (UniProt P40535); experiment: PBM E-score (8-mer binding enrichment) (E-score (-0.5 to 0.5)); higher = stronger / more preferred TF binding; most listed sequences are background and not binding sites; details: protein concentration: 200 nM; construct: GST-DNA-binding domain
Procedure: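 Universal 'all 10-mer' protein binding microarrays (Agilent AMADID 015681) probed with GST-tagged S. cerevisiae TFs (full-length or DBD) made by in vitro transcription/translation (PURExpress), about 100-200 nM. Bound TF was detected with fluorescent anti-GST. Each ungapped 8-mer (which stands for itself and its reverse complement) is scored by the PBM enrichment score (E-score), a modified Wilcoxon-Mann-Whitney statistic from -0.5 to +0.5, computed with the Universal PBM Analysis Suite. Scale: above 0.35 generally sequence-specific binding.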

| Sequence | PBM E-score |
| --- | --- |
| CAGCGTTC | -0.0772 |
| AATGTATA | 0.0762 |
| GCATGGAA | -0.0117 |
| GCTTTATA | 0.0192 |
| GCAATAAC | 0.00721 |
| GACCGACA | -0.127 |
| ATAGTATA | 0.0866 |
| AATAGGAC | -0.0671 |
| AATCGTAC | 0.168 |
| CAGTCAGC | -0.0415 |
| CTTCAAAA | 0.119 |
| AAAATGGA | 0.194 |
| ACTCAATA | 0.161 |
| GAATCGAA | 0.162 |
| CATGTACG | 0.0944 |
| CCGTGCAA | 0.137 |
| AGAGTAAG | 0.0845 |
| GGATGACC | 0.00132 |
| AACACTAT | 0.272 |
| AGTGTCAC | 0.122 |
| AGGGGTCG | -0.18 |
| CTGCTGAA | -0.0585 |

| Sequence | PBM E-score |
| --- | --- |
| CTGTCGTC | 0.187 |
| GACCAGCC | -0.16 |
| AGCAGCAC | -0.218 |
| TACAACTA | 0.0529 |
| ATGAAACA | 0.087 |
| AGAGTGTC | 0.203 |
| ATATGCAT | -0.0114 |
| CAGGTCCC | -0.22 |
| AGCACATG | -0.0275 |
| GTATAGTA | 0.026 |
| CTCAAAGA | 0.037 |
| ACAGAAAG | 0.178 |
| AACAGTGC | -0.096 |
| GAGACAAA | -0.154 |
| CTTAATAA | 0.155 |
| CACGAGTG | -0.0475 |
| GAAATAAC | 0.148 |
| GGCGGTGA | 0.106 |
| ACCTTTAC | 0.0303 |
| CGCGCCCA | -0.00511 |
| TAACTTAA | 0.213 |
| TATCAACA | 0.179 |

| Sequence | PBM E-score |
| --- | --- |
| ACGGCTAA | 0.245 |
| GCAGTCGA | -0.163 |
| AGCGCTTG | -0.105 |
| GTGGTAAC | 0.0774 |
| CGTCAAAA | 0.248 |
| ATATGGAA | 0.0108 |
| CATAGTCG | 0.0293 |
| CTGGTAGC | -0.0346 |
| CGTATTGA | 0.141 |
| AAGAATGC | 0.0306 |
| ACCCTCCG | -0.38 |
| ACCGGACG | 0.0583 |
| AACAACAG | 0.0569 |
| CAAGGACA | -0.0473 |
| GGGCACTA | -0.178 |
| ACTATAAA | 0.162 |
| ATATCTTG | 0.114 |
| AATCGACG | 0.213 |
| AATCTCGT | 0.084 |
| CCTCACAA | 0.0405 |
| TAAAAATA | 0.295 |
| ATGAAGTA | 0.162 |

| Sequence | PBM E-score |
| --- | --- |
| AGTTCAGC | -0.244 |
| CGATTGGA | -0.125 |
| GTCGTCAA | 0.147 |
| GAATATAC | 0.0265 |
| ACATATAA | 0.274 |
| GTTAGCCA | -0.0273 |
| AACTACGT | 0.208 |
| ATTACAGG | 0.0946 |
| ATGACAGA | 0.243 |
| ATCTAAGA | 0.0804 |
| ACGTAACA | 0.386 |
| GGACCGAA | -0.0143 |
| AAGGGAAC | -0.304 |
| ACGGCCGT | 0.162 |
| CTTGCGGA | -0.139 |
| ATGTGTGC | -0.0723 |
| CATAACGA | 0.0358 |
| TAGTGCAA | 0.0452 |
| CGCAATAA | 0.273 |
| CAAGGAGA | -0.197 |
| AAAACGAT | 0.127 |
| CCGAACCG | -0.26 |

| Sequence | PBM E-score |
| --- | --- |
| AGCGACAT | -0.0097 |
| ATTATACA | 0.19 |
| ACGCTCGG | 0.0469 |
| AACGCCCT | -0.152 |
| CGGAGGAG | -0.36 |
| CAACAGCG | -0.0885 |
| CAAATCGC | -0.198 |
| GAGGGACC | -0.299 |
| CTTAAGTC | -0.134 |
| GGGGCCAC | -0.31 |
| GCCGGCAC | 0.00694 |
| GGATGCAC | -0.202 |
| AGTTGGTC | -0.0585 |
| ATTCGAAA | 0.112 |
| CACGAAAC | 0.0111 |
| GGCAAAAC | 0.132 |
| CCGTGCCA | 0.054 |
| TAGCAGCA | -0.165 |
| CCGACGCG | -0.128 |
| ACATGCTC | -0.062 |
| TAATGGGA | -0.0514 |
| ATATAAGC | 0.24 |
